Experimental data from the antibiotic and cytotoxicity screens of Wong et al. (2023).
The list shows a part of the results.

How the values were obtained:
HSkMC = human skeletal muscle cells; test: cytotoxicity call (relative viability < 0.9); conditions: 10 µM
HepG2 = test: cytotoxicity call (relative viability < 0.9); conditions: 10 µM
S. aureus RN4220 = test: growth inhibition call (relative growth <= 0.2); conditions: 50 µM

| Structure (SMILES) | cytotoxicity call (HSkMC) | cytotoxicity call (HepG2) | growth inhibition call (S. aureus RN4220) |
| --- | --- | --- | --- |
| C[C@@H]1CN([C@H](C)CO)C(=O)c2cc(NS(=O)(=O)c3cn(C)cn3)ccc2O[C@@H](C)CCCCO[C@@H]1CN(C)Cc1ccc(C(F)(F)F)cc1 | inactive | inactive | inactive |
| O=C(CCCCCCC(=O)Nc1ccc([C@H]2C[C@H](c3ccccc3)O[C@H](c3ccncc3)O2)cc1)NO | inactive | inactive | inactive |
| S=C1SCN(Cc2ccccc2)CN1Cc1ccccc1 | inactive | active | inactive |
| C[C@H](CO)N1C[C@H](C)[C@@H](CN(C)Cc2ccc3c(c2)OCO3)Oc2cc(C#CCN(C)C)ccc2S1(=O)=O | inactive | inactive | inactive |
| CC(C)NC(=O)Nc1ccc2c(c1)C(=O)N([C@@H](C)CO)C[C@@H](C)[C@H](CN(C)Cc1ccc(C(=O)O)cc1)O2 | inactive | inactive | inactive |
| CC[C@H]1Sc2ccccc2NC1=O | inactive | inactive | inactive |
| C[C@@H]1CN([C@H](C)CO)C(=O)c2cc(NC(=O)Nc3ccc(F)cc3)ccc2O[C@@H](C)CCCCO[C@@H]1CN(C)C(=O)c1ccccc1 | inactive | inactive | inactive |
| NC[C@H](c1ccncc1)c1ccc[nH]1 | inactive | inactive | inactive |
| COCCN1CCO[C@H]2CN(S(=O)(=O)c3cn(C)cn3)CC[C@@H]2C1 | inactive | inactive | inactive |
| Nc1ccc(O)c(C(=O)O)c1 | inactive | inactive | inactive |
| C[C@@H]1CN([C@H](C)CO)S(=O)(=O)c2ccc(-c3ccncc3)cc2O[C@@H]1CN(C)C(=O)c1cccc(F)c1 | inactive | inactive | inactive |
| Cc1ccc(S(=O)(=O)Nc2cccc3c2O[C@@H](CN(C)CC2CC2)[C@@H](C)CN([C@@H](C)CO)C3=O)cc1 | inactive | inactive | inactive |
| COCCOC(=O)N1C(=O)[C@@]2(c3cc(C#CC4=CCCCC4)ccc31)[C@H](C(=O)N1CCc3cc(OC)c(OC)cc3C1)[C@H]1C(=O)O[C@H](c3ccccc3)[C@H](c3ccccc3)N1[C@@H]2c1ccccc1OCCO | active | active | inactive |
| CN1CCN(C(=O)C[C@H]2CC[C@@H]3[C@H](COc4ccc(NC(=O)C5CCOCC5)cc4C(=O)N3C)O2)CC1 | inactive | inactive | inactive |
| CN1CCN(C(=O)C[C@@H]2CC[C@@H]3[C@H](COC[C@@H](O)CN3C(=O)C3CCOCC3)O2)CC1 | inactive | inactive | inactive |
| C[C@@H]1CCCCO[C@@H](CN(C)C(=O)Nc2ccccc2)[C@@H](C)CN([C@H](C)CO)C(=O)c2cc(NC(=O)Nc3ccc(F)cc3)ccc2O1 | inactive | inactive | inactive |
| COc1ccc(NC(=O)N(C)C[C@H]2Oc3ccc(NC(=O)C4CC4)cc3CC(=O)N([C@@H](C)CO)C[C@@H]2C)cc1 | inactive | inactive | inactive |
| CCS(=O)(=O)Nc1ccc2c(c1)C(=O)N(C)[C@@H]1CC[C@H](CC(=O)N3CCN(C)CC3)O[C@H]1CO2 | inactive | inactive | inactive |
| C[C@@H]1CN([C@@H](C)CO)C(=O)Cc2cc(NC(=O)Nc3cccc4ccccc34)ccc2O[C@@H]1CN(C)C(=O)Nc1cccc2ccccc12 | inactive | inactive | inactive |
| C[C@@H]1CN([C@H](C)CO)C(=O)c2cc(NC(=O)Nc3ccc(F)cc3)ccc2O[C@H]1CN(C)CC1CCCCC1 | inactive | inactive | inactive |
| COc1cc(C(=O)O)cc(OC)c1O | inactive | inactive | inactive |
| O=C(NO)c1cccc(C(=O)N/N=C/[C@H](O)[C@@H](O)[C@@H](O)[C@H](O)C(=O)O)c1 | inactive | inactive | inactive |
| COc1ccc(C(=O)Oc2ccc(CCn3c(NC(=O)c4ccc(C(F)(F)F)cc4)nc4cc(C(=O)O)ccc43)cc2)cc1 | inactive | inactive | inactive |
| Cn1cnc(CCNC(=O)C[C@H]2CC[C@@H]3[C@H](COC[C@H](O)CN3C(=O)Nc3ccc(C(F)(F)F)cc3)O2)c1 | inactive | inactive | active |
| O=c1ccc(=O)n(CCO)[nH]1 | inactive | inactive | inactive |
| C[C@@H]1CN([C@@H](C)CO)C(=O)Cc2cc(NC(=O)Cc3ccccc3)ccc2O[C@H]1CN(C)Cc1ccc(Oc2ccccc2)cc1 | inactive | inactive | inactive |
| COc1ccc(NC(=O)Nc2ccc3c(c2)CC(=O)N([C@@H](C)CO)C[C@@H](C)[C@@H](CN(C)S(C)(=O)=O)O3)cc1 | inactive | inactive | inactive |
